# Measurements reported in the supplement of paper PMC12217912.
# The other results are listed elsewhere or left out. The full chains were built here from the parent and the listed change. Inactive controls read about 0.05.
# B1: TEV protease; numbered along this chain (parent)
# chain: MGESLFKGPRDYNPISSSICHLTNESDGHTTSLYGIGFGPFIITNKHLFRRNNGTLVVQSLHGVFKVKDTTTLQQHLVDGRDMIIIRMPKDFPPFPQKLKFREPQREERICLVTTNFQTKSMSSMVSDTSCTFPSGDGIFWKHWIQTKDGQCGSPLVSTRDGFIVGIHSASNFTNTNNYFTSVPKNFMELLTNQEAQQWVSGWRLNADSVLWGGHKVFMVKPEEPFQPVKEATQL
# Variants of: B1
# Test: raw area under fraction-flipped curve 0-4 h after induction (AUC4h, not background-subtracted), DNA-recorder readout of cleavage of the substrate (dimensionless); higher = more cleavage of the substrate by the protease variant
# Settings: temperature: 34 °C; time window: 0-4 h after rhamnose induction
# Protocol: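 In vivo DNA recorder in E. coli TOP10(DE3) ΔrhaA at 34 °C. Each TEVp single-site mutant (parent TEVp 0) is paired with a single-site variant of the 7-mer TEVs (canonical ENLYFQ|S). The substrate sits between flexible linkers in a Bxb1-sfGFP-TEVs-SsrA fusion, so cleavage stabilises Bxb1 and speeds flipping of a recombination array, read by NGS. The value is the raw area under the fraction-flipped curve over 0-4 h after rhamnose induction (AUC4h), with ≥20 reads per time point. It is not background-subtracted; inactive controls average about 0.047.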
# 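Also: Bxb1 expression induced with 0.2% (w/v) L-rhamnose at OD600 near 0.5, cultures sampled hourly, flipped fraction per protease–substrate barcode pair counted by paired-end Illumina sequencing.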
Variant,area with substrate ANLYFQS,area with substrate CNLYFQS,area with substrate DNLYFQS,area with substrate FNLYFQS,area with substrate GNLYFQS,area with substrate HNLYFQS,area with substrate INLYFQS,area with substrate LNLYFQS,area with substrate MNLYFQS,area with substrate NNLYFQS,area with substrate PNLYFQS,area with substrate SNLYFQS,area with substrate TNLYFQS,area with substrate WNLYFQS,area with substrate YNLYFQS,area with substrate KNLYFQS,area with substrate QNLYFQS,area with substrate RNLYFQS,area with substrate VNLYFQS
G166R,0.0623,0.048,0.0543,0.0487,0.0438,0.0503,0.0525,0.0555,0.065,0.0417,0.0503,0.0583,0.051,0.0546,0.0475,–,–,–,–
P155L,0.0786,0.0491,0.0589,0.0186,0.0572,0.0528,–,0.0479,0.0527,0.0527,0.054,0.0438,0.0564,0.05,0.0631,0.0594,0.0441,0.056,0.0609
P155W,0.0487,0.0671,0.0576,0.0404,0.0526,0.08,0.0487,0.0623,0.0478,0.0432,0.0547,0.0526,0.0568,0.0532,0.0416,0.0512,0.0655,0.057,–
P155S,0.0639,0.045,0.0617,0.0636,–,0.0485,0.0598,0.0666,0.0767,0.0602,0.0555,0.0502,0.0579,0.0522,0.046,0.0589,–,–,0.0466
P155A,0.0496,0.0708,0.104,–,0.0639,0.0559,–,0.0657,0.0601,–,0.0615,–,0.0547,0.0466,–,0.07,–,–,–
L156W,0.0897,0.0533,0.0707,0.0518,0.0586,0.0567,0.0576,0.0604,0.0581,0.062,0.0483,0.0543,0.0554,0.0619,0.0581,0.0611,0.0431,0.0634,0.0504
H143R,0.0601,0.0524,0.0719,–,–,0.0459,–,0.0746,0.0493,–,–,–,0.0601,–,–,–,0.0568,0.0755,–
S169F,0.0552,0.0556,0.0518,–,–,0.0538,0.0564,0.0571,–,–,0.0604,–,0.0507,0.05,0.0462,0.0561,–,0.0361,–
S169T,0.0514,0.0697,0.08,0.0526,0.0685,0.0546,–,0.0573,0.071,0.064,0.0601,–,0.064,0.0581,0.0641,0.0666,0.0553,–,–
H168W,0.061,0.0576,0.0608,0.0611,0.0738,0.0572,–,0.0841,0.0586,0.0664,0.0606,–,0.0588,0.0597,0.046,0.0554,0.0532,0.0415,0.074
N177A,0.0614,0.088,0.112,0.059,–,–,0.0698,–,0.0808,0.0704,0.0672,0.0571,0.0726,0.0634,0.0891,0.0807,0.0465,–,0.0719
N177H,0.062,0.0662,0.0474,0.0834,–,0.0706,0.0395,–,0.0826,0.0638,–,0.058,–,0.0631,0.0845,0.0735,0.0465,0.0676,–
